Data taken from a collection of fitness landscapes (doi:10.1038/s41467-024-54723-y).
The full ranking holds about 18,000 sequences; the median of “TetR repression strength (sort-seq, GFP reporter)” is about 0.23, and the highest 2% start at about 0.68. Some of the results follow.

Each sequence was assayed against TetR (class B, Tn10) (UniProt P04483) (assay: TetR repression strength (sort-seq, GFP reporter) (relative to tetO2 = 1); higher = stronger repression). Details: E. coli.
Summary of the method: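 E. coli SIG10-MAX carried a low-copy plasmid library with eight randomized operator positions between a constitutive promoter and sfGFP, with TetR constitutively expressed. Cells grew 5 h at 37 °C in LB with 50 µg/mL chloramphenicol, then 10^6 cells were FACS-sorted into 13 fluorescence bins, each Illumina-sequenced. Repression strength is the top bin index plus one minus the read-weighted mean bin, divided by the wild-type operator value. Three independent transformations; variants with ≥30 reads in all replicates and CV ≤0.5 were averaged.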

Chain of UniProt P04483 (P04483 whole entry): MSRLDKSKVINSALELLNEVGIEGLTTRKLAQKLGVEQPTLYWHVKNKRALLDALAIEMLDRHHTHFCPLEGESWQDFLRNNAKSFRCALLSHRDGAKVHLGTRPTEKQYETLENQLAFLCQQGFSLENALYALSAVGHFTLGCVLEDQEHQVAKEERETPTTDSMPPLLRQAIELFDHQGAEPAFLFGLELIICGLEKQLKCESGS

Row | Sequence | TetR repression strength
1 | TCCCATCTAGTTTGCGAGA | 0.297
2 | TCCCGGTGAGTGGGCGAGA | 0.15
3 | TCCCATTGAGTCAAGGAGA | 0.592
4 | TCCCATCGAGTATGCGAGA | 0.264
5 | TCCCGCTTAGTCCGAGAGA | 0.195
6 | TCCCTGACAGTCAGCGAGA | 0.136
7 | TCCCGTGGAGTCGCCGAGA | 0.14
8 | TCCCGGGCAGTAGTGGAGA | 0.419
9 | TCCCGCGTAGTGTCAGAGA | 0.233
10 | TCCCTAGAAGTGACGGAGA | 0.153
11 | TCCCGCGAAGTGTATGAGA | 0.222
12 | TCCCTTTGAGTTTTAGAGA | 0.2
13 | TCCCGGCCAGTAGGTGAGA | 0.229
14 | TCCCCCGCAGTGCTCGAGA | 0.331
15 | TCCCGCCGAGTCATAGAGA | 0.275
16 | TCCCCTTGAGTAATAGAGA | 0.253
17 | TCCCCGTTAGTGTGCGAGA | 0.0902
18 | TCCCGAACAGTTGGCGAGA | 0.27
19 | TCCCAATAAGTGCTAGAGA | 0.629
20 | TCCCCGTCAGTCAGTGAGA | 0.421
21 | TCCCAGTGAGTAAAAGAGA | 0.222
22 | TCCCTGTTAGTGTAAGAGA | 0.0382
23 | TCCCTAGCAGTAGCTGAGA | 0.174
24 | TCCCATATAGTGCGTGAGA | 0.291
25 | TCCCGGGCAGTAAATGAGA | 0.431
26 | TCCCGGATAGTAGTTGAGA | 0.346

Row | Sequence | TetR repression strength
27 | TCCCGACGAGTAACTGAGA | 0.467
28 | TCCCTCGAAGTGGGAGAGA | 0.135
29 | TCCCTTCTAGTCCGTGAGA | 0.468
30 | TCCCGATAAGTTGTGGAGA | 0.161
31 | TCCCTTGGAGTTCTTGAGA | 0.179
32 | TCCCTTTAAGTGGAGGAGA | 0.247
33 | TCCCGAGAAGTCCTGGAGA | 0.263
34 | TCCCTGACAGTTTGAGAGA | 0.251
35 | TCCCTGAGAGTTTGTGAGA | 0.198
36 | TCCCACTAAGTTGCTGAGA | 0.0327
37 | TCCCGAGGAGTACAAGAGA | 0.444
38 | TCCCGCTGAGTTTCAGAGA | 0.204
39 | TCCCCTGTAGTGGAAGAGA | 0.0556
40 | TCCCATGGAGTAAGAGAGA | 0.0851
41 | TCCCCTAGAGTCCTGGAGA | 0.952
42 | TCCCCCTCAGTTTCTGAGA | 0.239
43 | TCCCGCTAAGTCGGTGAGA | 0.207
44 | TCCCCCATAGTAGGAGAGA | 0.171
45 | TCCCTTAGAGTTAACGAGA | 0.275
46 | TCCCTTCAAGTTTGAGAGA | 0.185
47 | TCCCCGTTAGTTACTGAGA | 0.222
48 | TCCCATATAGTGGCGGAGA | 0.0484
49 | TCCCGGGCAGTTATGGAGA | 0.1
50 | TCCCTCCGAGTGTTGGAGA | 0.0665
51 | TCCCGCAAAGTTAGTGAGA | 0.0818
52 | TCCCGTTTAGTGTGTGAGA | 0.212

Row | Sequence | TetR repression strength
53 | TCCCGAGGAGTGCTAGAGA | 0.108
54 | TCCCGAAAAGTTTATGAGA | 0.0921
55 | TCCCTTGCAGTGTTCGAGA | 0.441
56 | TCCCCACGAGTCGGGGAGA | 0.411
57 | TCCCAATCAGTGGAGGAGA | 0.26
58 | TCCCTTCAAGTGTTGGAGA | 0.208
59 | TCCCATTGAGTGAGCGAGA | 0.435
60 | TCCCTCGCAGTCCGCGAGA | 0.188
61 | TCCCACAAAGTGCGAGAGA | 0.495
62 | TCCCAGCAAGTGGGGGAGA | 0.237
63 | TCCCAGCGAGTCAGTGAGA | 0.149
64 | TCCCTTCAAGTGGTAGAGA | 0.292
65 | TCCCTGTGAGTCGGAGAGA | 0.0538
66 | TCCCTGTAAGTAGGTGAGA | 0.0648
67 | TCCCACGCAGTGCATGAGA | 0.234
68 | TCCCTGGCAGTCTGTGAGA | 0.0742
69 | TCCCCCGAAGTGGTGGAGA | 0.205
70 | TCCCGTCTAGTGTTTGAGA | 0.371
71 | TCCCATTTAGTTGTTGAGA | 0.121
72 | TCCCGGCCAGTGCGTGAGA | 0.32
73 | TCCCGCGGAGTCAACGAGA | 0.307
74 | TCCCATATAGTCAGTGAGA | 0.166
75 | TCCCATGTAGTTAAGGAGA | 0.127
76 | TCCCTGAAAGTCACGGAGA | 0.337
77 | TCCCGCTAAGTAAGGGAGA | 0.124
78 | TCCCTAAAAGTTGGCGAGA | 0.403

Row | Sequence | TetR repression strength
79 | TCCCACCTAGTTCGTGAGA | 0.116
80 | TCCCTAATAGTATAGGAGA | 0.207
81 | TCCCAATCAGTGAAAGAGA | 0.686
82 | TCCCGTAGAGTAATCGAGA | 0.25
83 | TCCCTGTCAGTGGCGGAGA | 0.391
84 | TCCCGAGCAGTTCCCGAGA | 0.148
85 | TCCCCGGTAGTGAGGGAGA | 0.299
86 | TCCCCTGCAGTATGGGAGA | 0.113
87 | TCCCGGATAGTTAAGGAGA | 0.213
88 | TCCCATGGAGTGTTGGAGA | 0.177
89 | TCCCATTCAGTGAAGGAGA | 0.223
90 | TCCCGGGTAGTGGGGGAGA | 0.273
91 | TCCCCACGAGTCTCTGAGA | 0.326
92 | TCCCGCAAAGTTCCGGAGA | 0.236
93 | TCCCGGAGAGTGGGGGAGA | 0.171
94 | TCCCATGAAGTCCTAGAGA | 0.32
95 | TCCCCCACAGTTTAAGAGA | 0.307
96 | TCCCTTATAGTCCACGAGA | 0.238
97 | TCCCGTGGAGTGACTGAGA | 0.356
98 | TCCCGAGAAGTTGGTGAGA | 0.146
99 | TCCCAGGAAGTGGGGGAGA | 0.191
100 | TCCCCTTGAGTATGTGAGA | 0.409
101 | TCCCTGCAAGTTGTCGAGA | 0.192
102 | TCCCATGCAGTCGGCGAGA | 0.235
